Experimental data from article PMC2783927 (Nature immunology, 2009).

T1: IL-17RC extracellular domain, soluble (without BirA ligase tag) (UniProt Q8NAC3 21-538)
T1 sequence: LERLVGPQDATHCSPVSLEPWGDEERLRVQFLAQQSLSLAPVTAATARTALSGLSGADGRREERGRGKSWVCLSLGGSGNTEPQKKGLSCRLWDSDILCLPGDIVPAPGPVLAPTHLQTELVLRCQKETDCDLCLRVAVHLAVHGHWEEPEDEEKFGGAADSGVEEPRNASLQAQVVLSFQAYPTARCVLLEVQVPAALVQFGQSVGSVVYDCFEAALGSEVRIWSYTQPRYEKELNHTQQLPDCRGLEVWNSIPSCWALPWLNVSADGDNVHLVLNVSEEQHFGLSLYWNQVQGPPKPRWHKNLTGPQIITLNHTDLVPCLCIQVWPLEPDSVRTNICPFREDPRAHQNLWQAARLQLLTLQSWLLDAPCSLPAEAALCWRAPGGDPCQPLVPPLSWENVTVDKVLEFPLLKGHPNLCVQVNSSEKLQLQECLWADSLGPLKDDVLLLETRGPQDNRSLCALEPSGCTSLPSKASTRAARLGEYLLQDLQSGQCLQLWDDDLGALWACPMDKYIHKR

B1: IL-17RA extracellular domain, soluble (without BirA ligase tag) (receptor)
chain: not shown
B2: IL-17RA-IL-17A complex, pre-assembled on the SPR chip (complex)
chain 1: not shown
chain 2: not shown
modifications: biotin on the C-terminal BirA ligase tag

Assays:
[1] = target: B2; test: SPR
[2] = target: T1, IL-17RC extracellular domain, soluble …; test: SPR

Question: For B1, which Kd [1] is on record?
Answer: Its Kd is 3.1 µM.

Question: Which Kd [2] does the source give for B2 here?
Answer: The Kd was 174 nM.
